# Source: PubChem BioAssay AID760 (NMMLSC, 2007)
# About 360 (0.19%) of roughly 190,000 compounds were called active. The inconclusive results got no clear call from the source; some entries with a clear call stand among them for comparison.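 Rule for the calls: active = GTP binding activity at least 20 points away from 100%, either lowered or raised; inconclusive = signal likely due to the compound's own green fluorescence; inactive = the rest.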
# Target: Ras-related protein Rab-2A (Canis lupus familiaris) (UniProt P61105)
# Assay: Rab2 wt fluorescent GTP binding changes, either direction – biochemical, dog, bead-based flow cytometry, multiplex, primary screen (AID 760);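 note: 0% = beads with excess unlabeled GTP and 100% = no-compound control corrected for plate trend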
# Conditions: GST-Rab2 wt beads, Bodipy-GTP binding, at 10 µM
row,Structure (SMILES),GTP binding activity
1,CCOc1ccccc1NC(=S)NNS(=O)(=O)c1c(C)cc(C)cc1C,inactive: 98%
2,CCn1c(NC(=S)Nc2ccccc2)nc2ccccc21,inconclusive: 106%
3,CC(=O)Nc1ccc(/C=N/N2CCCCC2)cc1,inactive: 96%
4,CN(C)C(=O)/C(=C\c1ccncc1)NC(=O)c1ccccc1,inconclusive: 95%
5,N#CCC(=O)Nn1c(=S)[nH]c2ccccc2c1=O,inactive: 99%
6,COc1ccc(Nc2cc(Cl)nc(N)n2)cc1,inconclusive: 96%
7,Cn1c(CCN2CCOCC2)nc2cc(NC(=O)COc3ccc(Cl)cc3)ccc21,inconclusive: 108%
8,O=C1c2ccccc2S(=O)(=O)N1CC(O)Cn1ccc2ccccc21 (stereo not drawn),inconclusive: 90%
9,CCC(Sc1ccccc1C(=O)O)C(=O)O (stereo not drawn),inconclusive: 104%
10,COc1ccc2c(c1OC)C(=O)N1c3ccccc3SC21 (stereo not drawn),inconclusive: 104%
11,COc1ccc(N(CC(=O)NC2CCCC2)C(=O)CS(=O)CC(=O)Nc2ccc3c(c2)OCO3)cc1 (stereo not drawn),inactive: 95%
12,N=C1/C(=C\c2ccc(SCc3ccco3)o2)C(=O)N=C2SC=NN12,active: 77%
13,COc1cccc(Oc2cncnc2-c2ccc(OC)cc2O)c1,inconclusive: 92%
14,c1ccc(-n2nnnc2SCc2cn3ccccc3n2)cc1,inconclusive: 101%
15,CCN(CC)C(=O)Cn1c(=O)c2ccccc2n2c(=S)sc(-c3cccc(C)c3)c12,inactive: 103%
16,Cc1[nH]c(C)c(C(=O)O)c1CNC1CCCCC1C (stereo not drawn),inconclusive: 107%
17,COc1ccc(/C=N/Nc2ncnc3sc4c(c23)CCCC4)cc1O,active: 71%
18,CC(OC(=O)C1CC1)C(=O)Nc1ccc([N+](=O)[O-])cc1Cl (stereo not drawn),inactive: 97%
19,COc1cc(CNC(C)(C)CO)ccc1OCC(=O)Nc1ccc(Br)cc1,inactive: 102%
20,Cc1cc(C)c(S(=O)(=O)c2ccccc2C)c(OCC(C)(C)C)n1,inconclusive: 95%

row,Structure (SMILES),GTP binding activity
1,N#C/C(=N/O)c1nc(-c2ccc(F)cc2)cs1,inconclusive: 101%
2,Cc1cc(NC(=O)c2oc3ccccc3c2C)ccc1-n1cnnn1,inconclusive: 163%
3,c1ccc2c(c1)[nH]c1nc3nncn3nc12,inconclusive: 89%
4,COc1cc(NC(=S)Nc2cccc(C)n2)cc(OC)c1OC,inconclusive: 92%
5,COC(=O)c1ccccc1NC(=O)CSc1nnnn1-c1ccc(C)cc1C,inconclusive: 91%
6,CN1/C(=C\C=C(/C#N)C(=O)Nc2ccc(Cl)cc2)C(C)(C)c2ccccc21,active: 133% [activator]
7,Cc1nc2nc(SCC(=O)NCCN3CCOCC3)nn2c(C)c1Cc1ccccc1,inactive: 100%
8,COc1ccc(C(=O)Nc2nnc(-c3cccs3)s2)cc1,inconclusive: 106%
9,COC(=O)c1cccc(C(=O)Nc2cnc3ccccc3c2)n1,inconclusive: 89%
10,O=C(NCc1cccs1)c1cc(-c2ccccc2)on1,inconclusive: 93%
11,Cc1cc(NS(=O)(=O)c2ccc(Nc3nc(-c4sc(N)nc4C)cs3)cc2)no1,active: 75%
12,CCCCCCN(C(=O)CCCCCN1C(=O)NC(c2ccc(-c3ccccc3)cc2)C(C(=O)OCc2ccccc2)=C1C)C(C(=O)NCCCC)c1ccc(O)cc1 (stereo not drawn),inactive: 101%
13,CS(=O)(=O)c1ccc(S(=O)CC(=O)Oc2ccc(Cl)cc2)c([N+](=O)[O-])c1 (stereo not drawn),inactive: 95%
14,Cc1ccc2cn[nH]c2c1N,inconclusive: 86%
15,CCSc1nnc(-c2ccc(Cl)cc2)c2ccccc12,inconclusive: 91%
16,C#CCOCCOCCOCCNc1nc(N2CCN(C(=O)[C@H]([C@@H](C)CC)n3cc([C@@H](N)CC(C)C)nn3)CC2)nc(N2CCN(C(=O)[C@H](CCCCN)n3cc([C@@H](N)CO)nn3)CC2)n1,inactive: 97%
17,COc1ccccc1-c1nnc(SCC(=O)N2CCOCC2)n1-c1ccccc1,inconclusive: 102%
18,CCn1cc(C(=O)N2CCN(c3ccccn3)CC2)c(=O)c2cc(S(=O)(=O)N(C)C3CCCCC3)ccc21,inactive: 91%
19,Cc1sc2nc(-c3cccnc3)nc(Cl)c2c1-c1ccccc1,inconclusive: 102%
20,O=S(=O)(Nc1cccc(-c2cn3cccnc3n2)c1)c1ccc(Cl)cc1,inconclusive: 87%

row,Structure (SMILES),GTP binding activity
1,O=C(COc1ccc2ccccc2c1)Nc1ccc2c3c(cccc13)CC2,inconclusive: 90%
2,COc1ccccc1NC(=O)c1c(N=Cc2ccccc2O)cnn1C,inconclusive: 93%
3,O=C(CSc1nc2ccccc2c(=O)[nH]1)N1CCCCCC1,inconclusive: 104%
4,CC1CC(C)CN(C(=O)CSc2ccsc2[N+](=O)[O-])C1 (stereo not drawn),inactive: 102%
5,CSc1nnc(C)c(/C=C/Nc2ccc(F)cc2)n1,inactive: 94%
6,CN(CCNC(=O)C1(O)c2ccccc2NC(=O)N1c1ccccc1)Cc1ccccc1 (stereo not drawn),inconclusive: 103%
7,N#Cc1c(-c2ccccc2)nc(SCC(=O)Nc2ccccc2)[nH]c1=O,inconclusive: 71%
8,CSc1nc(-c2ccccc2)cn1-c1ccc(NC(C)=O)cc1,inconclusive: 93%
9,COc1ccccc1N1CCN(C(=O)CCCN2C(=O)c3cccc4cccc(c34)C2=O)CC1,inactive: 96%
10,Cc1ccc(C(=O)O/N=C/C2=C(Cl)c3ccccc3CC2)cc1,inconclusive: 89%
11,CN(C)S(=O)(=O)c1cc(NC2CC(=O)N(c3ccc(F)cc3)C2=O)ccc1Cl (stereo not drawn),inconclusive: 95%
12,CSCCC(NC(=O)c1ccccc1C)C(=O)O (stereo not drawn),inconclusive: 96%
13,O=C(O)c1ccc(Nc2nc(-c3cccnc3)nc3ccccc23)cc1,inconclusive: 69%
14,COC(=O)CSc1nc2c(c(=O)[nH]c(=O)n2C)n1CCC(C)C,inconclusive: 108%
15,O=[N+]([O-])c1ccccc1/C=C/C=N/Nc1ccc(S(=O)(=O)Nc2ccc(Cl)cc2)cc1[N+](=O)[O-],inactive: 93%
16,COc1cc(/C=C2/SC(=Nc3ccc(O)cc3)NC2=O)cc(OC)c1O,active: 70%
17,O=c1c2cccnc2[nH]c(=S)n1CCC1=CCCCC1,inconclusive: 105%
18,O=C(O)c1cc([N+](=O)[O-])ccc1NCc1ccccc1Cl,active: 129% [activator]
